According to the supplement of paper PMC10369915:
This is one part of the list. Cut-off read from the data, not from the text of the source: active = 3.2 or more and inactive = the rest. Only a few entries rise above the background.

biological target: SHP2 C-SH2 domain E139D; experiment: enrichment score (SH2-bound / input frequency) (ratio); bacterial display of known human phosphotyrosine sites (pTyr-Var adds point mutants) read by sequencing; higher = stronger binding; tyrosines were phosphorylated by kinases first; details: peptide library: pTyr-Var
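Note: displayed peptides selected on beads carrying the immobilized SH2 domain, with library peptides lacking any tyrosine serving as negative controls.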

Enrichment score, inactive:
KKYPDYIQIAM [SGMS2_Y59] 1.82
AIFRRYSKFFD [SH3PXD2B_Y45_YF] 0.233
LCRYGYANTSE [SI_Y1233] 1.06
RPGGRYPVARR [SHANK3_Y1569_S1566G] 0.175
PGQRVYVVAER [SHH_Y316] 1.05
GLDGSYLLRDS [SH2D1A_Y29] 0.525
TGEDWYVLVRV [SF3B3_Y904_G908R] 0.583
DAVAVYHGKIS [SH2D1A_Y7] 0.678
KKYPDYIQSAM [SGMS2_Y59_I62S] 1.06
STEAIYRRYSK [SH3PXD2B_Y42] 0.47
PGQRVYVVAES [SHH_Y316_R321S] 0.71
DPTNTYARPAE [SGMS2_Y24] 0.5
STEAIYWRYSK [SH3PXD2B_Y42_R43W] 0.72
SARSAYQEAMD [SFN_Y151] 0.721
AIFWRYSKFFD [SH3PXD2B_Y45_R43W_YF] 2.96
RQEEEYKRFSE [SFSWAP_Y133_L136F] 0.819
GLDGRYLLRDS [SH2D1A_Y29_S28R] 0.963
ALVFLYFCIIF [SIGLEC12_Y494] 1.14

biological target: SHP2 C-SH2 domain wild-type; experiment: as above; details: peptide library: pTyr-Var

Enrichment score, inactive:
KKYPDYIQIAM [SGMS2_Y59] 1.6
AIFRRYSKFFD [SH3PXD2B_Y45_YF] 0.207
LCRYGYANTSE [SI_Y1233] 0.775
RPGGRYPVARR [SHANK3_Y1569_S1566G] 0.202
PGQRVYVVAER [SHH_Y316] 0.915
GLDGSYLLRDS [SH2D1A_Y29] 0.55
TGEDWYVLVRV [SF3B3_Y904_G908R] 0.875
DAVAVYHGKIS [SH2D1A_Y7] 0.761
KKYPDYIQSAM [SGMS2_Y59_I62S] 1.4
STEAIYRRYSK [SH3PXD2B_Y42] 0.399
PGQRVYVVAES [SHH_Y316_R321S] 0.855
DPTNTYARPAE [SGMS2_Y24] 0.572
STEAIYWRYSK [SH3PXD2B_Y42_R43W] 0.691
SARSAYQEAMD [SFN_Y151] 0.635
AIFWRYSKFFD [SH3PXD2B_Y45_R43W_YF] 2.4
RQEEEYKRFSE [SFSWAP_Y133_L136F] 0.775
GLDGRYLLRDS [SH2D1A_Y29_S28R] 0.76
ALVFLYFCIIF [SIGLEC12_Y494] 0.778

biological target: SHP2 N-SH2 domain L43F; experiment: as above; details: peptide library: pTyr-Var

Enrichment score, inactive:
KKYPDYIQIAM [SGMS2_Y59] 1.66
AIFRRYSKFFD [SH3PXD2B_Y45_YF] 0.232
LCRYGYANTSE [SI_Y1233] 0.648
RPGGRYPVARR [SHANK3_Y1569_S1566G] 0.227
PGQRVYVVAER [SHH_Y316] 0.893
GLDGSYLLRDS [SH2D1A_Y29] 0.754
TGEDWYVLVRV [SF3B3_Y904_G908R] 0.595
DAVAVYHGKIS [SH2D1A_Y7] 0.795
KKYPDYIQSAM [SGMS2_Y59_I62S] 1.05
STEAIYRRYSK [SH3PXD2B_Y42] 0.295
PGQRVYVVAES [SHH_Y316_R321S] 0.944
DPTNTYARPAE [SGMS2_Y24] 0.809
STEAIYWRYSK [SH3PXD2B_Y42_R43W] 0.61
SARSAYQEAMD [SFN_Y151] 0.601
AIFWRYSKFFD [SH3PXD2B_Y45_R43W_YF] 2.27
RQEEEYKRFSE [SFSWAP_Y133_L136F] 0.813
GLDGRYLLRDS [SH2D1A_Y29_S28R] 0.739
ALVFLYFCIIF [SIGLEC12_Y494] 0.636

biological target: SHP2 N-SH2 domain T42A; experiment: as above; details: peptide library: pTyr-Var

Enrichment score, inactive:
KKYPDYIQIAM [SGMS2_Y59] 1.88
AIFRRYSKFFD [SH3PXD2B_Y45_YF] 0.306
LCRYGYANTSE [SI_Y1233] 0.61
RPGGRYPVARR [SHANK3_Y1569_S1566G] 0.201
PGQRVYVVAER [SHH_Y316] 0.795
GLDGSYLLRDS [SH2D1A_Y29] 0.545
TGEDWYVLVRV [SF3B3_Y904_G908R] 0.663
DAVAVYHGKIS [SH2D1A_Y7] 0.648
KKYPDYIQSAM [SGMS2_Y59_I62S] 0.879
STEAIYRRYSK [SH3PXD2B_Y42] 0.42
PGQRVYVVAES [SHH_Y316_R321S] 0.926
DPTNTYARPAE [SGMS2_Y24] 0.453
STEAIYWRYSK [SH3PXD2B_Y42_R43W] 0.622
SARSAYQEAMD [SFN_Y151] 0.579
AIFWRYSKFFD [SH3PXD2B_Y45_R43W_YF] 2.3
RQEEEYKRFSE [SFSWAP_Y133_L136F] 0.574
GLDGRYLLRDS [SH2D1A_Y29_S28R] 0.815
ALVFLYFCIIF [SIGLEC12_Y494] 0.877

biological target: SHP2 N-SH2 domain T52S; experiment: as above; details: peptide library: pTyr-Var

Enrichment score, inactive:
KKYPDYIQIAM [SGMS2_Y59] 1.65
AIFRRYSKFFD [SH3PXD2B_Y45_YF] 0.368
LCRYGYANTSE [SI_Y1233] 0.887
RPGGRYPVARR [SHANK3_Y1569_S1566G] 0.154
PGQRVYVVAER [SHH_Y316] 0.851
GLDGSYLLRDS [SH2D1A_Y29] 0.698
TGEDWYVLVRV [SF3B3_Y904_G908R] 0.594
DAVAVYHGKIS [SH2D1A_Y7] 0.607
KKYPDYIQSAM [SGMS2_Y59_I62S] 0.991
STEAIYRRYSK [SH3PXD2B_Y42] 0.463
PGQRVYVVAES [SHH_Y316_R321S] 0.758
DPTNTYARPAE [SGMS2_Y24] 0.782
STEAIYWRYSK [SH3PXD2B_Y42_R43W] 0.582
SARSAYQEAMD [SFN_Y151] 0.533
AIFWRYSKFFD [SH3PXD2B_Y45_R43W_YF] 2.26
RQEEEYKRFSE [SFSWAP_Y133_L136F] 0.861
GLDGRYLLRDS [SH2D1A_Y29_S28R] 0.72
ALVFLYFCIIF [SIGLEC12_Y494] 1.18

biological target: SHP2 N-SH2 domain wild-type; experiment: as above; details: peptide library: pTyr-Var

Enrichment score, inactive:
KKYPDYIQIAM [SGMS2_Y59] 2.04
AIFRRYSKFFD [SH3PXD2B_Y45_YF] 0.268
LCRYGYANTSE [SI_Y1233] 0.889
RPGGRYPVARR [SHANK3_Y1569_S1566G] 0.225
PGQRVYVVAER [SHH_Y316] 1.01
GLDGSYLLRDS [SH2D1A_Y29] 0.779
TGEDWYVLVRV [SF3B3_Y904_G908R] 0.992
DAVAVYHGKIS [SH2D1A_Y7] 0.742
KKYPDYIQSAM [SGMS2_Y59_I62S] 0.724
STEAIYRRYSK [SH3PXD2B_Y42] 0.426
PGQRVYVVAES [SHH_Y316_R321S] 0.825
DPTNTYARPAE [SGMS2_Y24] 0.623
STEAIYWRYSK [SH3PXD2B_Y42_R43W] 0.832
SARSAYQEAMD [SFN_Y151] 0.724
AIFWRYSKFFD [SH3PXD2B_Y45_R43W_YF] 2.39
RQEEEYKRFSE [SFSWAP_Y133_L136F] 0.99
GLDGRYLLRDS [SH2D1A_Y29_S28R] 0.981
ALVFLYFCIIF [SIGLEC12_Y494] 0.695
